In all, about 33,000 sequences were measured (“E-score (-0.5 to 0.5)”: median about -0.035, highest 2% from about 0.35 on). This is one part of the list.
target: T1, Pdr3 (UniProt P33200); assay: PBM E-score (8-mer binding enrichment) (E-score (-0.5 to 0.5)); higher = stronger / more preferred TF binding; most listed sequences are background and not binding sites; settings: protein concentration: 200 nM; construct: GST-full length
T1 sequence: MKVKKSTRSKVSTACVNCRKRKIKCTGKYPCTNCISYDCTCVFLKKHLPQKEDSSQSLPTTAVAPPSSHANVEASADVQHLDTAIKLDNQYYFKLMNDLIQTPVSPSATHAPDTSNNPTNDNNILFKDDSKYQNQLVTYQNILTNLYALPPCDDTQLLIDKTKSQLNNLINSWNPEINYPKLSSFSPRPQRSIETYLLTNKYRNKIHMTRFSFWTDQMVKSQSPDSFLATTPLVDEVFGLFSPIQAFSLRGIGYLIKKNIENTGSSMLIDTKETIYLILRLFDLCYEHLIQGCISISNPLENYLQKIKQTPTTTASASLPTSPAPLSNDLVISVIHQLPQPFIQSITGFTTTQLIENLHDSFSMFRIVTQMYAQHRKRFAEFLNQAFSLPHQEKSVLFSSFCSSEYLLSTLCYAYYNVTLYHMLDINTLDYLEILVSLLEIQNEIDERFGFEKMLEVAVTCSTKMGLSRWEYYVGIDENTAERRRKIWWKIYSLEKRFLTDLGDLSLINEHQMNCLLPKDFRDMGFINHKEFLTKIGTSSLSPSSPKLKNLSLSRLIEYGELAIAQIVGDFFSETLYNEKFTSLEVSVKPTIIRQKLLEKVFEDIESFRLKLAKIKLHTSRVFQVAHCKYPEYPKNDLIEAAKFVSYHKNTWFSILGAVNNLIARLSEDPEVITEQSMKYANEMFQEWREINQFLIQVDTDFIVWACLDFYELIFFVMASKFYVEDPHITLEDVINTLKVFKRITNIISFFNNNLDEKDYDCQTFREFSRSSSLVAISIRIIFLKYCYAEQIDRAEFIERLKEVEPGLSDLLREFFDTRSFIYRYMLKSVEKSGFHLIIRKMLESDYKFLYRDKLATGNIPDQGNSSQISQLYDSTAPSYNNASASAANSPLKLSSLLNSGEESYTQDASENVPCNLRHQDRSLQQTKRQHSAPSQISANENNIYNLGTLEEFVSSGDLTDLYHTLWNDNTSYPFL
Outline: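 Detection of bound protein used fluorescent anti-GST, with scans normalised by masliner. The proteins were GST-tagged yeast transcription factors applied at about 100-200 nM to universal all-10-mer Agilent arrays made double-stranded by primer extension. Each ungapped eight-base word, pooled with its reverse complement, was scored with an E-score from the Universal PBM Analysis Suite.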

Going from ATCCCATC to AGCCTGCG, the “PBM E-score” value falls from -0.0699 to -0.108.

Compared with GTCCCCAC, GAGTGGTA is lower in “PBM E-score” value: -0.0465 for the first, -0.08 for the second.

First: ATGTCAAT
Second: AATCGAAC
The “PBM E-score” value of the first is higher: 0.0385 for the first, -0.114 for the second.

Compared with TATAGGAA, GACTCACC is higher in “PBM E-score” value: -0.134 for the first, -0.126 for the second.

Compared with GCCACTCA, CTTCGAAC is higher in “PBM E-score” value: -0.0519 for the first, 0.0998 for the second.

Compared with GTATCAGA, GGACTGCA is lower in “PBM E-score” value: -0.0254 for the first, -0.177 for the second.

First: CAGTTGTC
Second: GACTAGAA
The “PBM E-score” value of the first is higher: -0.0452 for the first, -0.203 for the second.

First: CTTGGGTA
Second: ATCGGCGG
The “PBM E-score” value of the first is lower: -0.0381 for the first, 0.341 for the second.

First: CGGACCCC
Second: ACATCAGC
The “PBM E-score” value of the first is higher: 0.198 for the first, 0.0189 for the second.

Compared with GGACAAAC, ATCAATGC is higher in “PBM E-score” value: 0.0155 for the first, 0.131 for the second.

Going from AACATCCA to GAAAAGGA, the “PBM E-score” value rises from -0.0276 to 0.0166.

Compared with ATAGCCAG, AATAACAC is higher in “PBM E-score” value: -0.222 for the first, 0.149 for the second.

Compared with GACCAAGC, AAACCCAG is lower in “PBM E-score” value: -0.117 for the first, -0.171 for the second.

Going from ACATCAAC to CCACCAAG, the “PBM E-score” value falls from 0.13 to -0.134.

First: ATGGAAAA
Second: ACCTCCAA
The “PBM E-score” value of the first is higher: 0.0967 for the first, -0.187 for the second.

Compared with ACGGGTCA, CCTGATCG is lower in “PBM E-score” value: 0.0219 for the first, -0.0324 for the second.

Compared with TCCTGCCA, GAGCTAAA is higher in “PBM E-score” value: -0.148 for the first, -0.136 for the second.

First: AAATTGAT
Second: ATTTGTGA
The “PBM E-score” value of the first is higher: 0.103 for the first, -0.153 for the second.

Going from AGGGACCT to ATGATCTG, the “PBM E-score” value rises from -0.108 to -0.0589.

First: AAATACAT
Second: ACAACTGC
The “PBM E-score” value of the first is lower: -0.171 for the first, -0.0933 for the second.

Going from CCAAAGTA to AGGCTGAG, the “PBM E-score” value falls from -0.0672 to -0.279.

Going from CAAACCAC to ACATCAAT, the “PBM E-score” value falls from -0.0587 to -0.0619.

Compared with GAAGTTAA, CAACATCC is higher in “PBM E-score” value: -0.118 for the first, 0.118 for the second.

Going from CGACAAGC to CGCTGTGC, the “PBM E-score” value rises from 0.00105 to 0.223.

Going from CCGGGAGC to GAGTCAGA, the “PBM E-score” value falls from 0.306 to -0.0205.

Compared with AACTCCGA, ACTAACAG is lower in “PBM E-score” value: 0.281 for the first, -0.0121 for the second.

Compared with CCAATTAA, AAAAACGG is higher in “PBM E-score” value: -0.0101 for the first, 0.236 for the second.

Compared with AGTGTTAA, AGAGGAAA is higher in “PBM E-score” value: -0.00935 for the first, 0.0754 for the second.

Compared with CTGTAGAA, AGGACAAT is lower in “PBM E-score” value: -0.0542 for the first, -0.0605 for the second.

Compared with ATGCATTA, GATAGCAA is lower in “PBM E-score” value: 0.0435 for the first, -0.0468 for the second.

Compared with ACTGAGCC, CCGTTATA is higher in “PBM E-score” value: 0.0738 for the first, 0.113 for the second.

First: ACACAGAG
Second: AGTCTGAA
The “PBM E-score” value of the first is higher: -0.0916 for the first, -0.303 for the second.

First: ACGCCTTG
Second: AAAGCTTT
The “PBM E-score” value of the first is lower: -0.11 for the first, 0.00459 for the second.

First: AAAACAGT
Second: ACAGCCCG
The “PBM E-score” value of the first is higher: 0.124 for the first, 0.0226 for the second.

Going from ATAGTCTC to AGTACGGA, the “PBM E-score” value rises from -0.0152 to 0.34.

First: ACTCAGAC
Second: CAATAAAA
The “PBM E-score” value of the first is lower: -0.0975 for the first, -0.0487 for the second.

First: CCGGCTGC
Second: AATCTCTG
The “PBM E-score” value of the first is higher: 0.338 for the first, -0.185 for the second.

Going from AGAGAGAA to AAAAGGCC, the “PBM E-score” value falls from -0.131 to -0.162.

Going from CTGATGGA to CCTTGTGA, the “PBM E-score” value rises from -0.0342 to -0.0319.

First: CGCTGCCC
Second: CGGTTTCA
The “PBM E-score” value of the first is higher: 0.13 for the first, 0.0642 for the second.

Compared with CAAGGTGG, CACAACGA is higher in “PBM E-score” value: -0.004 for the first, 0.048 for the second.

Going from CAGTGCCG to GCAGATTA, the “PBM E-score” value falls from 0.211 to -0.00313.

Going from AATTATTC to CGGGGTAG, the “PBM E-score” value rises from 0.0849 to 0.104.

Compared with AGCTAAGG, ACCACCAC is higher in “PBM E-score” value: -0.302 for the first, -0.0652 for the second.

First: AGAAATTC
Second: AAATCGCA
The “PBM E-score” value of the first is higher: 0.144 for the first, -0.057 for the second.

Going from GGAGAACA to CAAACCTG, the “PBM E-score” value falls from 0.0583 to -0.189.

Compared with CTAGCAAG, CAGAGAGA is higher in “PBM E-score” value: -0.231 for the first, -0.158 for the second.

First: ATAACTGG
Second: GAAGGAGA
The “PBM E-score” value of the first is higher: 0.00308 for the first, -0.0949 for the second.

Going from AAATCCAA to ATGGAGGA, the “PBM E-score” value falls from -0.0251 to -0.0755.

Compared with CTGAGCGA, AGGGCGCA is lower in “PBM E-score” value: 0.0338 for the first, -0.171 for the second.

Compared with GAGGCCTA, CACGTATC is higher in “PBM E-score” value: -0.0661 for the first, -0.0525 for the second.

Going from CAGGGTCA to ACAATCCG, the “PBM E-score” value rises from -0.214 to 0.281.

Compared with GGTAAAAC, GACGCAGA is higher in “PBM E-score” value: -0.0483 for the first, 0.0657 for the second.

Compared with GAGTTAAA, GGAAGGAC is higher in “PBM E-score” value: -0.0808 for the first, 0.154 for the second.

Compared with CATAGATG, GGAGAGCA is lower in “PBM E-score” value: -0.115 for the first, -0.148 for the second.

Going from GAGGGCGC to ACCCACAC, the “PBM E-score” value rises from -0.0611 to 0.0107.

Compared with GGGCGCTA, ATCCCAAG is higher in “PBM E-score” value: -0.106 for the first, 0.0333 for the second.

Going from CGTCCAAG to ATCTTATC, the “PBM E-score” value rises from 0.0264 to 0.0533.

Going from TGTCTAAA to CCTGGGTC, the “PBM E-score” value rises from -0.161 to -0.137.

First: AGTTGATG
Second: AAGTACAG
The “PBM E-score” value of the first is higher: -0.136 for the first, -0.302 for the second.

Compared with ATCTGAAG, AATCGTTC is higher in “PBM E-score” value: -0.174 for the first, -0.0216 for the second.

Going from AAATTGCT to CGCAGCAA, the “PBM E-score” value falls from -0.123 to -0.145.

First: AGAGGCTC
Second: CATTAATG
The “PBM E-score” value of the first is lower: -0.117 for the first, -0.0586 for the second.

First: CCACAGTA
Second: ACGGGCAG
The “PBM E-score” value of the first is lower: -0.0843 for the first, 0.201 for the second.

Compared with ATTTGTTA, GAGATTAA is lower in “PBM E-score” value: 0.0711 for the first, 0.0377 for the second.

First: CGAGCGGA
Second: CAGTAATA
The “PBM E-score” value of the first is higher: 0.359 for the first, -0.068 for the second.

Going from CAATGCAC to GGGACTAC, the “PBM E-score” value rises from -0.00477 to 0.0182.

Compared with CTTGGTAC, AATATGCC is higher in “PBM E-score” value: -0.0971 for the first, 0.0396 for the second.

Going from CTTTTCAC to CTGATTAA, the “PBM E-score” value rises from -0.0828 to 0.126.

Going from AAATTACC to AGAGTAGC, the “PBM E-score” value falls from -0.0477 to -0.228.

First: GAGAAAAC
Second: AAAAAAAT
The “PBM E-score” value of the first is lower: -0.0343 for the first, 0.115 for the second.

Compared with TGGTAACA, GAAAACGA is lower in “PBM E-score” value: -0.0779 for the first, -0.097 for the second.

Compared with CTCAGAGC, ATAACCGG is higher in “PBM E-score” value: -0.218 for the first, 0.182 for the second.

Going from AGACTATG to ATGAGTTC, the “PBM E-score” value rises from -0.189 to 0.0846.

Compared with GTATTATA, AATATAGT is lower in “PBM E-score” value: 0.2 for the first, 0.11 for the second.

First: ATATGAAA
Second: ATAATTGG
The “PBM E-score” value of the first is higher: 0.06 for the first, 0.00159 for the second.

First: TATCAGAA
Second: CTGCAGTC
The “PBM E-score” value of the first is higher: 0.0746 for the first, -0.232 for the second.

Compared with TCCGACCA, CAACACTA is lower in “PBM E-score” value: 0.272 for the first, 0.00928 for the second.

Going from AACACATT to AGTTGTCG, the “PBM E-score” value falls from 0.117 to 0.0287.

Compared with GAAATGGA, ACTATGCT is lower in “PBM E-score” value: -0.0765 for the first, -0.08 for the second.

Going from AACTCGGG to AGATGTCG, the “PBM E-score” value falls from 0.184 to 0.167.

Compared with ACCCGCGA, CATGGTCG is lower in “PBM E-score” value: 0.0513 for the first, -0.00458 for the second.

First: GGCAACCC
Second: AGGCGGCA
The “PBM E-score” value of the first is higher: 0.0929 for the first, -0.0661 for the second.

Compared with CCTAAGAC, GAGCAGAA is higher in “PBM E-score” value: -0.316 for the first, 0.00292 for the second.

First: CGCGCCTA
Second: ACTTGGAT
The “PBM E-score” value of the first is higher: 0.12 for the first, 0.0704 for the second.

First: GGATAGGA
Second: TGAGTAAA
The “PBM E-score” value of the first is higher: 0.0524 for the first, -0.168 for the second.

Source: the supplement of paper PMC3334620
